tested on: sedge, umbrella (small-flower umbrella sedge, Cyperus difformis); assay: Test B1 flooded paddy test, sedge, umbrella; format: in vivo; conditions: 250 g ai/ha, Flood, applied to paddy water, 2-leaf stage, visually evaluated after 10 to 14 days
Excerpt: A dash (-) response means no test result.

`Cc1cc(F)c(C2=NOC3CCCC23)cc1NS(=O)(=O)C(F)(F)F` (centres unmarked) [Compound 310] and `COc1cc(C)c(NS(=O)(=O)C(F)(F)F)cc1C1=NOC2CCCC12` (centres unmarked) [Compound 312] are the same in “Plant response rating, Sedge, Umbrella (0 to 100 scale, 0 is no effect, 100 is complete control)” value: 0 for the first, 0 for the second.

`CCc1cc(C)c(C2=NOC3(CCCC3)C2)cc1NS(=O)(=O)C(F)(F)F` [Compound 311] and `Cc1cc(C2CC2)c(NS(=O)(=O)C(F)(F)F)cc1C1=NOC2(CCCC2)C1` [Compound 313] are the same in “Plant response rating, Sedge, Umbrella (0 to 100 scale, 0 is no effect, 100 is complete control)” value: 0 for the first, 0 for the second.

`Cc1cc(C)c(N(COC(=O)OC(C)C)S(=O)(=O)C(F)(F)F)cc1C1=NOC2CCCC12` (centres unmarked) [Compound 314] and `COC(=O)OCN(c1cc(C2=NOC3CCCC23)c(C)cc1C)S(=O)(=O)C(F)(F)F` (centres unmarked) [Compound 315] are the same in “Plant response rating, Sedge, Umbrella (0 to 100 scale, 0 is no effect, 100 is complete control)” value: 90 for the first, 90 for the second.

First: Cc1cc(C)c(N(COC(=O)OC(C)(C)C)S(=O)(=O)C(F)(F)F)cc1C1=NOC2CCCC12 (centres unmarked) [Compound 316]
Second: Cc1cc(C)c(N(COC(=O)N(C)C)S(=O)(=O)C(F)(F)F)cc1C1=NOC2CCCC12 (centres unmarked) [Compound 317]
The “Plant response rating, Sedge, Umbrella (0 to 100 scale, 0 is no effect, 100 is complete control)” value of the first is higher: 90 for the first, 0 for the second.

Compared with `CCOC1CC(c2cc(NS(=O)(=O)C(F)(F)F)c(C)cc2C)=NO1` (centres unmarked) [Compound 318], `CCCCOC1CC(c2cc(NS(=O)(=O)C(F)(F)F)c(C)cc2C)=NO1` (centres unmarked) [Compound 323] is lower in “Plant response rating, Sedge, Umbrella (0 to 100 scale, 0 is no effect, 100 is complete control)” value: 80 for the first, 0 for the second.

Compared with `COCC1CC(c2cc(NS(=O)(=O)C(F)(F)F)c(C)cc2C)=NO1` (centres unmarked) [Compound 319], `Cc1cc(C)c(C2=NOC(OCC(C)C)C2)cc1NS(=O)(=O)C(F)(F)F` (centres unmarked) [Compound 322] is lower in “Plant response rating, Sedge, Umbrella (0 to 100 scale, 0 is no effect, 100 is complete control)” value: 80 for the first, 0 for the second.

First: Cc1c(C(=O)N(C)C)cc(NS(=O)(=O)C(F)(F)F)c(Cl)c1F [Compound 320]
Second: C#CCN(C)C(=O)c1cc(NS(=O)(=O)C(F)(F)F)c(Cl)c(F)c1C [Compound 337]
The “Plant response rating, Sedge, Umbrella (0 to 100 scale, 0 is no effect, 100 is complete control)” value of the first is lower: 90 for the first, 95 for the second.

First: Cc1c(C(=O)N2CCOCC2)cc(NS(=O)(=O)C(F)(F)F)c(Cl)c1F [Compound 321]
Second: Cc1c(C(=O)N2CCCCC2)cc(NS(=O)(=O)C(F)(F)F)c(Cl)c1F [Compound 333]
The “Plant response rating, Sedge, Umbrella (0 to 100 scale, 0 is no effect, 100 is complete control)” value of the first is higher: 98 for the first, 90 for the second.

Going from `Cc1c(C(=O)N2CCOCC2)cc(N(COC(=O)C(C)(C)C)S(=O)(=O)C(F)(F)F)c(C)c1C` [Compound 324, [[(Trifluoromethyl)sulfonyl][2,3,4-trimethyl-5-(4-morpholinylcarbonyl)phenyl]amino]methyl 2,2-dimethylpropanoate] to `Cc1c(C(=O)N2CCC(F)CC2)cc(N(COC(=O)C(C)(C)C)S(=O)(=O)C(F)(F)F)c(C)c1C` [Compound 361], the “Plant response rating, Sedge, Umbrella (0 to 100 scale, 0 is no effect, 100 is complete control)” value falls from 98 to 95.

`CCOC(=O)N(c1cc(C(=O)N2CCOCC2)c(C)c(C)c1C)S(=O)(=O)C(F)(F)F` [Compound 325] and `CCOC(=O)N(c1cc(C(=O)N2CCCCC2)c(C)c(C)c1C)S(=O)(=O)C(F)(F)F` [Compound 330, Ethyl N-[(trifluoromethyl)sulfonyl]-N-[2,3,4-trimethyl-5-(1-piperidinylcarbonyl)phenyl]carbamate] are the same in “Plant response rating, Sedge, Umbrella (0 to 100 scale, 0 is no effect, 100 is complete control)” value: 100 for the first, 100 for the second.

Compared with `Cc1c(NS(=O)(=O)C(F)(F)F)cc(C(=O)N2CCCCC2)c(C)c1C` [Compound 326], `Cc1c(NS(=O)(=O)C(F)(F)F)cc(C(=O)N2CCC(Cl)CC2)c(C)c1C` [Compound 356] is lower in “Plant response rating, Sedge, Umbrella (0 to 100 scale, 0 is no effect, 100 is complete control)” value: 95 for the first, 85 for the second.

Going from `Cc1c(C(=O)N2CCCCC2)cc(N(COC(=O)C(C)(C)C)S(=O)(=O)C(F)(F)F)c(C)c1C` [Compound 329, [[(Trifluoromethyl)sulfonyl][2,3,4-trimethyl-5-(1-piperidinylcarbonyl)phenyl]amino]methyl 2,2-dimethylpropanoate] to `Cc1c(C(=O)N2CCC(Cl)CC2)cc(N(COC(=O)C(C)(C)C)S(=O)(=O)C(F)(F)F)c(C)c1C` [Compound 359], the “Plant response rating, Sedge, Umbrella (0 to 100 scale, 0 is no effect, 100 is complete control)” value falls from 95 to 75.

`Cc1c(C(=O)N2C[C@@H](C)O[C@@H](C)C2)cc(N(COC(=O)C(C)(C)C)S(=O)(=O)C(F)(F)F)c(C)c1C` [Compound 331] and `CCOC(=O)N(c1cc(C(=O)N2C[C@@H](C)O[C@@H](C)C2)c(C)c(C)c1C)S(=O)(=O)C(F)(F)F` [Compound 332] are the same in “Plant response rating, Sedge, Umbrella (0 to 100 scale, 0 is no effect, 100 is complete control)” value: 90 for the first, 90 for the second.

Compared with `COC1CCCN(C(=O)c2cc(NS(=O)(=O)C(F)(F)F)c(Cl)c(F)c2C)C1` (centres unmarked) [Compound 334], `Cc1c(NS(=O)(=O)C(F)(F)F)cc(C(=O)N2CCC(F)CC2)c(C)c1C` [Compound 358] is lower in “Plant response rating, Sedge, Umbrella (0 to 100 scale, 0 is no effect, 100 is complete control)” value: 90 for the first, 55 for the second.

First: Cc1c(NS(=O)(=O)C(F)(F)F)cc(C2=NOC3CCCC23)c(C)c1C (centres unmarked) [Compound 335]
Second: Cc1c(C2=NO[C@@H]3CCC[C@H]23)cc(N(COC(=O)C(C)(C)C)S(=O)(=O)C(F)(F)F)c(C)c1C [Compound 336, [[(Trifluoromethyl)sulfonyl][2,3,4-trimethyl-5-[(3aR,6aR)-3a,5,6,6a-tetrahydro-4H-cyclopent[d]isoxazol-3-yl]phenyl]amino]methyl 2,2-dimethylpropanoate]
The “Plant response rating, Sedge, Umbrella (0 to 100 scale, 0 is no effect, 100 is complete control)” value of the first is lower: 90 for the first, 95 for the second.

Compared with `COCC1CC(c2cc(N(COC(=O)C(C)(C)C)S(=O)(=O)C(F)(F)F)c(C)cc2C)=NO1` (centres unmarked) [Compound 338], `CCOC1CC(c2cc(N(COC(=O)C(C)(C)C)S(=O)(=O)C(F)(F)F)c(C)cc2C)=NO1` (centres unmarked) [Compound 339] is lower in “Plant response rating, Sedge, Umbrella (0 to 100 scale, 0 is no effect, 100 is complete control)” value: 90 for the first, 65 for the second.

Compared with `Cc1cc(C)c(C2=NOC3(C)CCCC23)cc1NS(=O)(=O)C(F)(F)F` (centres unmarked) [Compound 340], `Cc1cc(C)c(C2=NOC3OCCC23)cc1NS(=O)(=O)C(F)(F)F` (centres unmarked) [Compound 349] is lower in “Plant response rating, Sedge, Umbrella (0 to 100 scale, 0 is no effect, 100 is complete control)” value: 95 for the first, 80 for the second.

Compared with `Cc1cc(C)c(N(COC(=O)C(C)(C)C)S(=O)(=O)C(F)(F)F)cc1C1=NOC2(C)CCCC12` (centres unmarked) [Compound 341], `Cc1cc(C)c(N(COC(=O)C(C)(C)C)S(=O)(=O)C(F)(F)F)cc1C1=NOC2OCCC12` (centres unmarked) [Compound 352] is lower in “Plant response rating, Sedge, Umbrella (0 to 100 scale, 0 is no effect, 100 is complete control)” value: 95 for the first, 70 for the second.

`CCC1ON=C(c2cc(N(C(=O)OCC(C)C)S(=O)(=O)C(F)(F)F)c(C)cc2C)C1CC` (centres unmarked) [Compound 345] and `CCOC(=O)N(c1cc(C(=O)N2CCOCC2)c(C)cc1C)S(=O)(=O)C(F)(F)F` [Compound 363] are the same in “Plant response rating, Sedge, Umbrella (0 to 100 scale, 0 is no effect, 100 is complete control)” value: 95 for the first, 95 for the second.

Compared with `CCC1ON=C(c2cc(N(C(=O)OCC(C)C)S(=O)(=O)C(F)(F)F)c(C)cc2C)C1CC` (centres unmarked) [Compound 348], `CCOC(=O)N(c1cc(C(=O)N2CCC(C)CC2)c(C)cc1C)S(=O)(=O)C(F)(F)F` [Compound 354] is lower in “Plant response rating, Sedge, Umbrella (0 to 100 scale, 0 is no effect, 100 is complete control)” value: 95 for the first, 70 for the second.

Compared with `Cc1cc(C)c(N(COC(=O)C(C)(C)C)S(=O)(=O)C(F)(F)F)cc1C(=O)N1CCC(F)(F)CC1` [Compound 350], `Cc1c(C(=O)N2CCC(F)(F)CC2)cc(N(COC(=O)C(C)(C)C)S(=O)(=O)C(F)(F)F)c(C)c1C` [Compound 360] is higher in “Plant response rating, Sedge, Umbrella (0 to 100 scale, 0 is no effect, 100 is complete control)” value: 85 for the first, 95 for the second.

`CCOC(=O)N(c1cc(C(=O)N2CCC(F)(F)CC2)c(C)cc1C)S(=O)(=O)C(F)(F)F` [Compound 351] and `CCOC(=O)N(c1cc(C(=O)N2CCC(c3ccccc3)CC2)c(C)cc1C)S(=O)(=O)C(F)(F)F` [Compound 365] are the same in “Plant response rating, Sedge, Umbrella (0 to 100 scale, 0 is no effect, 100 is complete control)” value: 70 for the first, 70 for the second.

Going from `Cc1cc(C)c(N(COC(=O)C(C)(C)C)S(=O)(=O)C(F)(F)F)cc1C(=O)N1CCC(C)CC1` [Compound 353] to `Cc1cc(C)c(N(COC(=O)C(C)(C)C)S(=O)(=O)C(F)(F)F)cc1C(=O)N1CCOCC1` [Compound 362], the “Plant response rating, Sedge, Umbrella (0 to 100 scale, 0 is no effect, 100 is complete control)” value falls from 85 to 75.

Compared with `Cc1cc(C2CC2)c(C2=NOC3CCCC23)cc1N(COC(=O)C(C)(C)C)S(=O)(=O)C(F)(F)F` (centres unmarked) [Compound 355], `Cc1cc(C)c(N(COC(=O)C(C)(C)C)S(=O)(=O)C(F)(F)F)cc1C(=O)N1CCC(c2ccccc2)CC1` [Compound 364] is lower in “Plant response rating, Sedge, Umbrella (0 to 100 scale, 0 is no effect, 100 is complete control)” value: 70 for the first, 0 for the second.

First: Cc1c(NS(=O)(=O)C(F)(F)F)cc(C(=O)N2CCC(F)(F)CC2)c(C)c1C [Compound 357]
Second: Cc1c(NS(=O)(=O)C(F)(F)F)cc(C(=O)N2CCC(C)CC2)c(C)c1C [Compound 366]
The “Plant response rating, Sedge, Umbrella (0 to 100 scale, 0 is no effect, 100 is complete control)” value of the first is lower: 75 for the first, 95 for the second.
